Measured values as given in the supplement of paper PMC11417369.
The other results are listed elsewhere or left out.

Test system: PF3D7_0420300 AP2 domain 1 (GST-tagged)
Assay: gcPBM binding intensity (ln(normalized median fluorescence intensity)); higher = stronger DNA binding
Outline: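 Plasmodium falciparum DNA-binding domains carrying a GST tag were expressed in E. coli and applied for 1 h, at about 25 μg on average, to an Agilent 4 × 180k array. The array held primer-extended double-stranded 36-bp intergenic genomic probes together with negative controls, and binding took place in 1× PBS with 1% milk, 0.2 mg/ml BSA, 0.5% salmon testes DNA and 0.03% Triton X-100. An Alexa488 anti-GST antibody detected bound protein, and the array was scanned at 488 nm. Binding intensity is taken as the highest Masliner-normalised natural-log median intensity across replicate spots of either probe orientation.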

First: AATTGCTTCAAAATTAAACACACACTAATAAAAAAA [CACACA_site8855]
Second: ATGAATGAATACGTTTTACACACTTGAATATAATTT [CACACA_site8237]
The “gcPBM binding intensity (ln)” value of the first is higher: 9.54 for the first, 9.49 for the second.

Going from “GTATATTGTACCATCACACATGTAAAACATAGATGT [CACACA_site5359]” to “AACATAACAAAAAAAAAAAAAAATATATATATATAT [TGCATGCA_negctrl_site370]”, the “gcPBM binding intensity (ln)” value falls from 9.22 to 9.08.

Going from “TATTTCACAAAAAAAAAAAAAAAAAAGAAGCAAAAA [CACACA_negctrl_site1040]” to “TCCTTAAAAAAACCTTAACACACATAAACTATAATT [CACACA_site9001]”, the “gcPBM binding intensity (ln)” value rises from 9.09 to 9.52.

Going from “TTTTTTTTTAAGTTTGCACACATGGAAGACAAAAAT [CACACA_site2505]” to “GATGAAATATCATTACGTACACAATAGTTTGTATTT [XGTACX_site5143]”, the “gcPBM binding intensity (ln)” value rises from 9.35 to 9.38.

Going from “TGAAAAAAAAAATGCACACGCATACAGATAATATGT [CACACA_site4526]” to “AATAATAATAGAAACACACACACATTTTTAAGAATA [CACACA_site6692]”, the “gcPBM binding intensity (ln)” value rises from 9.59 to 10.1.

Compared with “ATTATTGCAATTTAATGTACATAATACAAATTTGCC [XGTACX_site2729]”, “AATGAATAAATAAACACACACACATATATATATATG [CACACA_site18]” is higher in “gcPBM binding intensity (ln)” value: 9.3 for the first, 10.2 for the second.

Going from “TATACGTATACCTATACACACATATATATATATATA [CACACA_site1273]” to “TATATTCAAAAAAATTCATTTCTGATTTTTTTTTTT [CACACA_negctrl_site1085]”, the “gcPBM binding intensity (ln)” value falls from 9.49 to 8.78.

Compared with “TATTTCAAATGTTATGTGCACATATTAATCCTACTT [GTGCAC_site9738]”, “AATATCTGAAAATAAAGTACAAACATATTATAAATA [XGTACX_site5738]” is higher in “gcPBM binding intensity (ln)” value: 9.23 for the first, 9.42 for the second.

First: TACTTATTTGATTGGGTGCATATATATAGTATGTAT [GTGCAC_site9845]
Second: AATAATAATTTAAAAAGTACATTCTAATAAACACGT [XGTACX_site1444]
The “gcPBM binding intensity (ln)” value of the first is lower: 9.4 for the first, 9.46 for the second.

First: AAAAAAAAACACGCATGTACATAAAAATAATCATAC [XGTACX_site1086]
Second: TTATTTATGAGGGTGACACACAAAAGAGTGTTAAGA [CACACA_site277]
The “gcPBM binding intensity (ln)” value of the first is higher: 9.8 for the first, 9.38 for the second.

Going from “AAATAAAATAAAATAAAATAAAATAAAATAAAATAA [XGTACX_negctrl_site142]” to “CTTGTGCTTTATAGGGTGCACATTTTGTTTTGGTAA [GTGCAC_site9899]”, the “gcPBM binding intensity (ln)” value rises from 8.92 to 9.34.

Going from “TTATTAATTATATATAGTACACATTTCACAGATGGG [XGTACX_site2349]” to “TGAACACATACATACACACACACAAAAAAAAAAAAA [CACACA_site392]”, the “gcPBM binding intensity (ln)” value rises from 9.2 to 9.97.

Compared with “AAAATTATGCAGTAGGTGCAATACCCTCGGCTTTTT [GTGCAC_site9556]”, “TTTTTTTTTTTTTTTGGTACACATTTTGGTTAATGG [XGTACX_site5109]” is lower in “gcPBM binding intensity (ln)” value: 9.24 for the first, 9.06 for the second.

Going from “TTAATCCTTTTTAAAAGTACACATATATATATATAT [XGTACX_site962]” to “TATATATATATATAATGTACAGAAAAAAAAAAAAAA [XGTACX_site6141]”, the “gcPBM binding intensity (ln)” value rises from 9.16 to 9.38.

Going from “AAATCATGTTGAAGGGGTACAAAATATGTAATGTTG [XGTACX_site6222]” to “ATATTATATATTTGATGTACATTGAATGAGAGAGAA [XGTACX_site3324]”, the “gcPBM binding intensity (ln)” value rises from 9.31 to 9.4.

Going from “CAAATCAAAATTAATTAACACACAATTTTAATATTC [CACACA_site8641]” to “TTCTTTGTAGTATATTAACACACAACTGTTTATAAT [CACACA_site9305]”, the “gcPBM binding intensity (ln)” value rises from 9.42 to 9.63.

Going from “AAATAGAGAAATACAAGTACATACTAAACCAATCTA [XGTACX_site2780]” to “TATAATGTTGATAATAGTACGTATGAGTTCAAAAAA [XGTACX_site988]”, the “gcPBM binding intensity (ln)” value falls from 9.39 to 9.01.

First: AAAGGATATAATACCATACACACATTTATAAAATAA [CACACA_site1931]
Second: ACTTTTATTCGCTTACGTACATATATTATATATTAT [XGTACX_site4459]
The “gcPBM binding intensity (ln)” value of the first is lower: 9.64 for the first, 9.82 for the second.

Going from “AAAAGAAAATATATGTGTACTAAAATATATATATAT [XGTACX_site3817]” to “TACCTACACTTTTGGAGTACAATTAAAAAAAAAAAA [XGTACX_site1403]”, the “gcPBM binding intensity (ln)” value falls from 9.46 to 8.88.

Going from “TTTAAAGTAATAAAGTGTACAAAAATAAATTCAGCT [XGTACX_site8651]” to GTTTATTAAACATTAGTGCAATTTTAATCCATTCTA, the “gcPBM binding intensity (ln)” value falls from 9.46 to 8.95.

First: TAAAATAAAAATATAGTGCACAGATTTTGATATTTT [GTGCAC_site9696]
Second: CTTTGTGGTATAGATACACACTATATTAAGATGAAC [CACACA_site5215]
The “gcPBM binding intensity (ln)” value of the first is higher: 9.16 for the first, 9.15 for the second.

First: CACATTATGTATCATACACACAAATAGATATATAAC [CACACA_site6434]
Second: TGAAGGTTTCAAAAACGTACAAAAAAAAATGTTAGT [XGTACX_site8803]
The “gcPBM binding intensity (ln)” value of the first is higher: 9.72 for the first, 9.27 for the second.

First: TTTTTTTTTTATGGTACACACACGCGTATGGTTGCA [CACACA_site1876]
Second: TTTAGAAATAAATACACACATACATTTTTGTATACA [CACACA_site718]
The “gcPBM binding intensity (ln)” value of the first is higher: 9.69 for the first, 9.29 for the second.

Compared with “ATAATAAATGATAGCACACATATGTACATAAATACA [CACACA_site4634]”, “AACATATAAAAATGTGCACACACACCCATATATATA [CACACA_site1525]” is higher in “gcPBM binding intensity (ln)” value: 9.54 for the first, 9.97 for the second.

Compared with “TATCTTAACAATTAGTGTACAGATAACCAATTAAAA [XGTACX_site3184]”, “AATTAATGGAAACAAGTCAAATGATCTTTATGCATA [TGCATGCA_negctrl_site540]” is higher in “gcPBM binding intensity (ln)” value: 9 for the first, 9.13 for the second.

Compared with “AAATTGTAGAAGCGTATTTCTCGAACTGGATGAATA [CACACA_negctrl_site1373]”, “TTTATATCGACTCTTCTTTATATAAGTTGTGATGTT [TGCATGCA_negctrl_site362]” is higher in “gcPBM binding intensity (ln)” value: 9.21 for the first, 9.34 for the second.

First: TAAAGTGTAAAGAAGGTGCTCATTATTTATTTTTTT
Second: AGTTTCCTTGAGAAAAGTACGTAATACTACATATAT [XGTACX_site818]
The “gcPBM binding intensity (ln)” value of the first is higher: 9.21 for the first, 9.15 for the second.

Compared with “AAAAAAGAAACAAACACACATACATACAAACAAACA [CACACA_site142]”, “ATATGATATATTTTATGTACATATAAAACATATATA [XGTACX_site4297]” is lower in “gcPBM binding intensity (ln)” value: 10 for the first, 9.13 for the second.

With “TTATACTTTTTTTCTTGGTGTAGAAAAAAAAGTTAG [CACACA_negctrl_site1207]” the “gcPBM binding intensity (ln)” value was 8.81.
